Reference: publication PMC12772503
These are yes or no findings as the source states them, for the method shown. Binding seen in cells or lysates may run through a third protein. Some entries that bind do so weakly or less than the wild type. Where a sequence is shown, tags or fusion partners need not be part of it.

Amino acid sequences for entries named in this document (tags omitted). A change or cut given only in a name is not applied to a line headed by its entry.
UniProt P46824: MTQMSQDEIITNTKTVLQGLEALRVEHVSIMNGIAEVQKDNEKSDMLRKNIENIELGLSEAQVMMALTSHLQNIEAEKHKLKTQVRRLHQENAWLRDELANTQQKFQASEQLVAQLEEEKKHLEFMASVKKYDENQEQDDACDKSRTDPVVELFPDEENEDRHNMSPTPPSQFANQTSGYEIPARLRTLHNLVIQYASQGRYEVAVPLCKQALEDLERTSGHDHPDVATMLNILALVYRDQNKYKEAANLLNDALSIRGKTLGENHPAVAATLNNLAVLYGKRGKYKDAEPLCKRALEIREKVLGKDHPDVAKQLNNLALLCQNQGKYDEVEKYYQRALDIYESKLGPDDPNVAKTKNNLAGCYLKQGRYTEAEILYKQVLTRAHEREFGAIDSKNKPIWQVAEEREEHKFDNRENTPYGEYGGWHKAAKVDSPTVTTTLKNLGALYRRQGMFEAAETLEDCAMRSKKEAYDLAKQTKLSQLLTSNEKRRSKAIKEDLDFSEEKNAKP
UniProt O18333: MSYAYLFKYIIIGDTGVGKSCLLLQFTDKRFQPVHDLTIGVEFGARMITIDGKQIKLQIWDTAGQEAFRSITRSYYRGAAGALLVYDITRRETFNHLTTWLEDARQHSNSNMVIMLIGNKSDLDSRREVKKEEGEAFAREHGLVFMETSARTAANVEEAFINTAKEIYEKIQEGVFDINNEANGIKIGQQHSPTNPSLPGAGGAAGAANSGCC

What was measured:
[1] = target: T1, myc-Syd-N2 (Syd^1-529) (Drosophila) (UniProt Q9GQF1); experiment: co-IP; lysates (1.0 mg/ml) of transfected HEK293 cells on Pierce anti-HA magnetic beads, 2 h, 4°C; 20 mM HEPES pH 7.4, 130 mM NaCl, 2 mM MgCl2, 0.1% saponin; 60 uM GppNHp with Rab2(wt) and Rab2[Q65L] but not Rab2[S20N]; eluted with 100 mM NaOH or HA peptide; Western blot; in Fig. S2 E cells treated with 2 uM MLi-2 for 2 h or co-transfected with LRRK2^G2019S
T1 sequence: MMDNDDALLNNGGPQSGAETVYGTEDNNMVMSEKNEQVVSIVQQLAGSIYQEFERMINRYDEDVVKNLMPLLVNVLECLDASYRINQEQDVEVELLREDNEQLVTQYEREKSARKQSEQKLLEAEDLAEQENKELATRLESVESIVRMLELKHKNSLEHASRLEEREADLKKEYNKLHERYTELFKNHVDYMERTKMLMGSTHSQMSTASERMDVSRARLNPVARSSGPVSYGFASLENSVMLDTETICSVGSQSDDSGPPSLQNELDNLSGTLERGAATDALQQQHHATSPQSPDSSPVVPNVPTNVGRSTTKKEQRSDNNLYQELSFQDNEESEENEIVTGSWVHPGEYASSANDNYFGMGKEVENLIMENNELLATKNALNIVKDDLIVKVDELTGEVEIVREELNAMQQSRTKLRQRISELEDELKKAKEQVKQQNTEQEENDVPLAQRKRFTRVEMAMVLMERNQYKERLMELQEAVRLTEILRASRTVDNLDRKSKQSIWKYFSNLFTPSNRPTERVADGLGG

[2] = target: T1, myc-Syd-N2 (Syd^1-529) (Drosophila); experiment: co-IP; lysates (1.0 mg/ml) of transfected HEK293 cells on Pierce anti-c-Myc magnetic beads, 2 h, 4°C; 20 mM HEPES pH 7.4, 130 mM NaCl, 2 mM MgCl2, 0.1% saponin, 60 uM GppNHp; washes with 0.25% then 0.1% saponin; eluted by heating in SDS-PAGE loading buffer; Western blot
[3] = target: T2, myc-tagged full-length Syd (Drosophila) (UniProt Q9GQF1); experiment: as above
T2 sequence: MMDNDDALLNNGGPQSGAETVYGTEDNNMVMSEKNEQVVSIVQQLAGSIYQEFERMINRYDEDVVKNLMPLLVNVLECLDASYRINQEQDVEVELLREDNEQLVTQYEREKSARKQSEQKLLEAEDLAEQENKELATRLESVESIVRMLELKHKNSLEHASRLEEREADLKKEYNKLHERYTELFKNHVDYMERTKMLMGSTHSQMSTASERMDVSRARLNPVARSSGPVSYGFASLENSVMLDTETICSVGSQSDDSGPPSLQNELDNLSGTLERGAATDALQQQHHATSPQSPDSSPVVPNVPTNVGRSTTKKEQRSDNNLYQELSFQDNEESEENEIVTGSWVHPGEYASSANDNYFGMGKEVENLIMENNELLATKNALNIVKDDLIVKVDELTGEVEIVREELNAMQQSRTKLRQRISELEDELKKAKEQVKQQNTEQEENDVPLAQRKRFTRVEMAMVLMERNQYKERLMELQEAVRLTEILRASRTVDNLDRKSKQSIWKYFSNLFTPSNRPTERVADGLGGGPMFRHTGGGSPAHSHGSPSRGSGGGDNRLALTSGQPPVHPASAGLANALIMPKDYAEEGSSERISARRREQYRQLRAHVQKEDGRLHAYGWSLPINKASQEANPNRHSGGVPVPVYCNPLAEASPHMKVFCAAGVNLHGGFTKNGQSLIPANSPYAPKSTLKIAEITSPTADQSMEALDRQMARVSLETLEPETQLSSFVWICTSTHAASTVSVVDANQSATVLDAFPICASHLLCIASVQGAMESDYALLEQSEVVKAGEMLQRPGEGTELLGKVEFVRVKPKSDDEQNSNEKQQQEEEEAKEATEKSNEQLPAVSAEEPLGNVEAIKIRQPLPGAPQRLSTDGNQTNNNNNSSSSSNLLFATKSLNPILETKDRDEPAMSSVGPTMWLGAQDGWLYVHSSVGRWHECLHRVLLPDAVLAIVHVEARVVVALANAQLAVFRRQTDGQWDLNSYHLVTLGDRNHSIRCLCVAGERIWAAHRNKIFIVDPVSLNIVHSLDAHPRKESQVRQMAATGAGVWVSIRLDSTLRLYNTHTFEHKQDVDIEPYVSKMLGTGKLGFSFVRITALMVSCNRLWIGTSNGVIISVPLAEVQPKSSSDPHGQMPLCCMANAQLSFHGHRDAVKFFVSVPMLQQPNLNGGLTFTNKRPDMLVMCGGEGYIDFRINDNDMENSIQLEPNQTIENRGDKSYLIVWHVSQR

[4] = target: T3, myc-tagged dNischarin (Drosophila) (UniProt Q7K490); experiment: as above
T3 sequence: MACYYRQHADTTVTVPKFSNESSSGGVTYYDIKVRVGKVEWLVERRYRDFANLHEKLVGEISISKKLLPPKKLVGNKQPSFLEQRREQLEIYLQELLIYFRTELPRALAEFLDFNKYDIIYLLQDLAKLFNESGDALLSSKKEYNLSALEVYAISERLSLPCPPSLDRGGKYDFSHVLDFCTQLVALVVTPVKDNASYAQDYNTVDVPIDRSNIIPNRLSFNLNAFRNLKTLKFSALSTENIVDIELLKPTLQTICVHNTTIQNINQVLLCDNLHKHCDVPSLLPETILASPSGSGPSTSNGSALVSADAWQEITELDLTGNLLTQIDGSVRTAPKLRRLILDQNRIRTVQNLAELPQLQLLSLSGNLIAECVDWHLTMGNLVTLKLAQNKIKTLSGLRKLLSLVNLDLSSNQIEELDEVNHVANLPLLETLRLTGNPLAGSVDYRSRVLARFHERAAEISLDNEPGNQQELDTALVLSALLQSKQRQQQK

[5] = target: T4, HA-Syd-N2 (Syd^1-529) (Drosophila) (UniProt Q9GQF1); experiment: co-IP; lysates (1.0 mg/ml) of transfected HEK293 cells on Pierce anti-HA magnetic beads, 2 h, 4°C; 20 mM HEPES pH 7.4, 130 mM NaCl, 2 mM MgCl2, 0.1% saponin; 60 uM GppNHp with Rab2(wt) and Rab2[Q65L] but not Rab2[S20N]; eluted with 100 mM NaOH or HA peptide; Western blot; in Fig. S2 E cells treated with 2 uM MLi-2 for 2 h or co-transfected with LRRK2^G2019S
T4 sequence: T1 sequence

[6] = target: T5, HA-Syd-N4 (Syd^1-485) (Drosophila) (UniProt Q9GQF1); experiment: as above
T5 sequence: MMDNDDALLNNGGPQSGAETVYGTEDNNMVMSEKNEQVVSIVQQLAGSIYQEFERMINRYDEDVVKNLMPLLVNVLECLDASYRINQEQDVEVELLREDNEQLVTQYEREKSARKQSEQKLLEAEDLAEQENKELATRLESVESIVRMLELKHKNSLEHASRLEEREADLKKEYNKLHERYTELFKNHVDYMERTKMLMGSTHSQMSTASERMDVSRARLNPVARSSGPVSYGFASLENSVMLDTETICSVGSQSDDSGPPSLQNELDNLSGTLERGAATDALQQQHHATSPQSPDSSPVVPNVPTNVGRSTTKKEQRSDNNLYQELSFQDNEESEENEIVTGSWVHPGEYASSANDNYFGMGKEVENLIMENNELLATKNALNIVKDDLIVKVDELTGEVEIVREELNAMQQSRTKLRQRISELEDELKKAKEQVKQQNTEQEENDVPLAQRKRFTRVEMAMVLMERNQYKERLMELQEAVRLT

## FLAG-tagged Klc (from UniProt P46824 1-508)
[1]
  binding: binds

## HA-Rab2^Q65L (from UniProt O18333 1-213)
[2]
  binding: binds
[3]
  binding: binds
[4]
  binding: binds weakly

## myc-Rab2^Q65L (from UniProt O18333 1-213)
[5]
  binding: binds
[6]
  binding: no binding
